Measured values: publication PMC12136788
The other results are listed elsewhere or left out.

B1: chr1:200665936:200666740:-|CDS|ENSG00000118197|control|control|control (ssRNA)
RNA: GGGAGUUCUACAGUCCGACGAUCCUGGGAAUUUUAGUUCAAGGGCAAGAAGUCACCAGGCCCAUUAUUGACUUUGAACAUUGUAGUCUCCCUGAGGUCUUAAAUCACAACUUGAAGAAAUCAGGCUAUGAGGUGCCAACUCCCCAACAGAGGAUUGAGCAUCA
B2: chr15:59031169:59031386:+|CDS|ENSG00000157450|unk|total|mutant (ssRNA)
RNA: GGGAGUUCUACAGUCCGACGAUCACACCAAGUGAUGAAGAUAAUGAUUCCUCUUUCCGUGAUUGUCUUUCUUCUCCUUCAUCCCGUCUGCAUUUUGGAGAUUCUGAUACUGUGACUUCAGAUGAGGAUAAAGAAGUCUCUGUACAACAGAGGAUUGAGCAUCA
B3: chr2:73761781:73762859:-|three_prime_utr|ENSG00000144048|control|control|control (ssRNA)
RNA: GGGAGUUCUACAGUCCGACGAUCUAUUCACACAGGAGGUAUUCUUGGAAUGUGAAGCCCAAUGCCAGUCGGGCAGCCCAGGAUAGAAGAAGGUGGUAUCCUUAUAAUUACUCCAGACUCUCCUAUCCAGCCUGUUGGGAAUGGCAACAGAGGAUUGAGCAUCA
B4: chr20:50584425:50584526:+|3pUTR|ENSG00000196396|msi1|total|mutant (ssRNA)
RNA: GGGAGUUCUACAGUCCGACGAUCACCUCCUAUCCUUGGAGAGCAGCUGGCUCUCCACCUUGUUACACAUUAUGUCCGAGAGGCCGCGAGCUGCUCUGCUAUAUGCCUUAAGCCAAUAUUUACUCAUCAGGUCAUUAUUUUUUACAACAGAGGAUUGAGCAUCA
B5: chr12:100625254:100625355:+|3pUTR|ENSG00000139354|unk|total|mutant (ssRNA)
RNA: GGGAGUUCUACAGUCCGACGAUCAUAUGUAUUAAAUAUGGAGUUCAUAUACCUGCUAAUAUCAACGGUGGUGCUCUUACUAUCCGUUAAUUGCAUUUUGGUUAAAAAAAAAAAAGCAACAGUUUGGCACUUGUCCUACAAAAGCAACAGAGGAUUGAGCAUCA
B6: chr9:96818597:96818698:-|CDS|ENSG00000196597|unk|FALSE|unique (ssRNA)
RNA: GGGAGUUCUACAGUCCGACGAUCGGAGAAACCAUUCGAAUGUCAUGAAUGUGGGAAAUCUUUUAACUAUAAGUCAAUCCUCAUAGUGCAUCAGAGAACUCACACAGGGGAGAAACCUUUUGAAUGUAAUGAAUGCGGGAAAUCCAACAGAGGAUUGAGCAUCA
B7: chr4:55870735:55870847:+|CDS|ENSG00000090989|unk|total|mutant (ssRNA)
RNA: GGGAGUUCUACAGUCCGACGAUCGGCAUCUGAAAAACAAGUCAACAUCCUGAUGAAAUUGCCCGAUGAGGCUCUAAAGGAGGCCGAUCAGAUUGAAUUGAAACUGAGCAGUUAUGAGGAAAUGCUCCAAAGUGUAAAAGAACACAACAGAGGAUUGAGCAUCA
B8: chr20:37404728:37404829:+|3pUTR|ENSG00000197122|msi1|total|mutant (ssRNA)
RNA: GGGAGUUCUACAGUCCGACGAUCGGCCUCUGCAACUGCUCAGCUCUGGUCCAGGCCCUGUGGCAGGACACACAUGGUGAGCCCCGCCCUGGGACAUCAGGAGACUGGGCUCUGGCUCUGUUCGGCCUUUGGGUGUGUGGUGGACAACAGAGGAUUGAGCAUCA
B9: chr6:134965076:134965177:-|3pUTR|ENSG00000112339|unk|total|mutant (ssRNA)
RNA: GGGAGUUCUACAGUCCGACGAUCAAAGGAACAAUGUGCAAUUGAUAUGUUUUCCGAUGAGAGAGAAAAAUUAAAGCUAAAAUCCGCUGCAAAGAAGUAUUAAUAAUCACCUCUGCAAAAAUUCUAAGUUGCCAACUGGCAAAGCAACAGAGGAUUGAGCAUCA
B10: ENSG00000107863:be:win_801|CDS|ENSG00000107863|bound_else_gene|NA|bound_elsewhere_windowed (ssRNA)
RNA: GGGAGUUCUACAGUCCGACGAUCCAAUGAAAGUGUAAGGACUGUCAUUGUGCCUUCUGAGAAGGUUGUAGAUUUGUUAUCCAAUAGAAACAACCAUACAGGUCCUUCACAUAGAACUGAAGAAGUGAGGUAUGGCGUGAGUGACAACAGAGGAUUGAGCAUCA
B11: ENSG00000198589:be:win_451|CDS|ENSG00000198589|bound_else_gene|NA|bound_elsewhere_windowed (ssRNA)
RNA: GGGAGUUCUACAGUCCGACGAUCCUUUUGGUUGACAUGUUGGGAGUGCUGGCUAGCUAUAAUUUGACAGUUCGCGAGCUAAAGCUUUUCUUCAGUAAACUUCAAGGAGAUAAAGGACGAUGGCCUCCACAUGCUGGGAAGUUGCAACAGAGGAUUGAGCAUCA
B12: chr3:179334266:179334377:+|CDS|ENSG00000121864|unk|FALSE|unique (ssRNA)
RNA: GGGAGUUCUACAGUCCGACGAUCUUAUUUAUGUCAAUAUUGUGAAUAUUCAACAGGACAAAUUGAAGAUCUUAAAAUUCAUCUAGAUUUCAAGCAUUCAGCUGACUUGCCUCAUAAAUGUAGUGACUGCUUGAUGAGGUUUGGCAACAGAGGAUUGAGCAUCA
B13: chr17:59694590:59694691:+|3pUTR|ENSG00000141367|msi1|FALSE|unique (ssRNA)
RNA: GGGAGUUCUACAGUCCGACGAUCCUUGUGUGUGUUUACUAACCCUUCCCUGAGGUUUGUGUAUGUUGGAUAUUGUGGUGUUUUAGAUCACUGAGUGUACAGAAGAGAGAAAUUCAAACAAAAUAUUGCUGUUCUUCAGUUUUGCAACAGAGGAUUGAGCAUCA
B14: ENSG00000096384:stop:overlap|stop_codon|ENSG00000096384|stop_codon|NA|stop_codon (ssRNA)
RNA: GGGAGUUCUACAGUCCGACGAUCCUGAUGAGAUCCCCCCUCUCGAGGGCGAUGAGGAUGCGUCUCGCAUGGAAGAAGUCGAUUAGGUUAGGAGUUCAUAGUUGGAAAACUUGUGCCCUUGUAUAGUGUCCCCAUGGGCUCCCACAACAGAGGAUUGAGCAUCA

Target: T1, UNK ZnF1-6 (called full-length) (human, UniProt Q9C0B0 30-357)
T1 sequence: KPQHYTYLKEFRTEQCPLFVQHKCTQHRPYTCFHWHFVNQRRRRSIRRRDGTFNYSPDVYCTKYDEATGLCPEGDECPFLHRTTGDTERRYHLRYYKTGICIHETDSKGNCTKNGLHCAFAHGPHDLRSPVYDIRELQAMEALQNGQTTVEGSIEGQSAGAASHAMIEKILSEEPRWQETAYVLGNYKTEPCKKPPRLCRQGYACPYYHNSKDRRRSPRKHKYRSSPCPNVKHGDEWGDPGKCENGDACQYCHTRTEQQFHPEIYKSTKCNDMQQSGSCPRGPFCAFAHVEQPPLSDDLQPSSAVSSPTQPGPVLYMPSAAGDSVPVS
Assay: nsRBNS (natural sequence RNA bind-n-seq); RBNS binding buffer (assumed for nsRBNS): 25 mM Tris pH 7.5, 150 mM KCl, 3 mM MgCl2, 0.01% Triton X-100, 500 ug/ml BSA, 20 U/ml SUPERase-In, 4 C; UNK is unkempt and MSI1 is Musashi-1; names of the RNAs are library labels; protein concentration not given here; high values mean tight binding

**Q.** How did the binding signal turn out when B1 was run?
**A.** 0.83 enrichment R

**Q.** B2 was tested. Which binding signal did it give?
**A.** 0.231 enrichment R

**Q.** For B3, which binding signal is on record?
**A.** 0.562 enrichment R

**Q.** Which binding signal does the source give for B4 here?
**A.** 0.85 enrichment R

**Q.** With B5 as the binder, how does the binding signal read?
**A.** 0.376 enrichment R

**Q.** For B6, which binding signal is on record?
**A.** 0.563 enrichment R

**Q.** With B7 as the binder, how does the binding signal read?
**A.** 0.423 enrichment R

**Q.** Which binding signal does the source give for B8 here?
**A.** 0.588 enrichment R

**Q.** For B9, which binding signal is on record?
**A.** 0.378 enrichment R

**Q.** Which binding signal does the source give for B10 here?
**A.** 0.626 enrichment R

**Q.** For B11, which binding signal is on record?
**A.** 0.475 enrichment R

**Q.** With B12 as the binder, how does the binding signal read?
**A.** 0.519 enrichment R

**Q.** With B13 as the binder, how does the binding signal read?
**A.** 0.646 enrichment R

**Q.** Which binding signal does the source give for B14 here?
**A.** 1.13 enrichment R
